Data reported in ChEMBL document CHEMBL4888484, “Replenishing the malaria drug discovery pipeline: Screening and hit evaluation of the MMV Hit Generation Library 1 (HGL1) against asexual blood stage Plasmodium falciparum ,using a nano luciferase reporter read-out” (2022).
Out of some 150,000 compounds screened, about 540 (0.36%) showed an effect of 50% or more. The list shows a part of the results.

test system: Plasmodium falciparum; assay: Primary screen in NF54 nanoGlo assay, in single point, at 2uM, 72h; a lower Z score goes with more inhibition; assay type: functional, Erythrocyte; conditions: timepoint 72 hour

Row | Compound | % Inhibition [%] | Z score
1 | CC[C@H](NC(=O)CN1CCCCCC1)c1ccc(C)cn1 | -6 | 1.12
2 | Cn1ccc2cc(C(=O)Nc3ccc4c(c3)C(=O)N3CCC[C@H]3C(O)=N4)ccc21 | 9 | -1.14
3 | CCNc1cc(N2CCN(C(=O)CCCc3ccccc3)CC2)nc(C)n1 | -13 | 2.25
4 | Nc1nc(N2CCCOCC2)c2cc(C(=O)O)ccc2n1 | -10 | 1.15
5 | Cc1ccnn1CC(=O)N(C)Cc1csc(-c2cccs2)n1 | -1 | 0.19
6 | c1nc(CCNC[C@@H]2CCCN3CCCC[C@H]23)c[nH]1 | -15 | 2.93
7 | O=C(OC[C@H]1CCCCN1)N1CCCCCC1 | -5 | 0.55
8 | CCN(CC)C(=O)c1nc(CNC(=O)C(C)(C)C)oc1C | -12 | 1.55
9 | CCC[C@]1(COC)CCCN1Cc1nc(-c2ccoc2)no1 | 7 | -0.85
10 | CN(C[C@@H]1OCCc2ccccc21)C(=O)Cc1cscn1 | -12 | 1.5
11 | Cn1cc(C(=O)N2CC(=O)Nc3ccccc3[C@@H]2c2ccccc2)ccc1=O | -12 | 1.62
12 | CN(C[C@H]1CCOC1)c1ncc(S(=O)(=O)NCCCF)cc1C(F)(F)F | -6 | 1.29
13 | Cc1ccc(-n2c(CN3CCN(C(=O)NCc4ccc(F)cc4)CC3)nc3cccnc32)cc1 | -3 | 0.42
14 | O=C(CNS(=O)(=O)c1ccc(Cl)c(C(F)(F)F)c1)NCC1(N2CCOCC2)CCCCC1 | 1 | -0.1
15 | CCc1ccc(S(=O)(=O)N2CCC3(CC2)NCCN=C3NCc2cccc(OC)c2)cc1 | 5 | -0.83
16 | CC(=O)Nc1ncncc1N1CCC(C(=O)NCc2ccccc2C(F)(F)F)CC1 | -4 | 0.77
17 | Cc1n[nH]c(-c2ccc(S(=O)(=O)N3CCN(Cc4ccccc4)CC3)s2)c1C | -2 | 0.45
18 | O=S1(=O)CCCN1C1CCN(c2nc(C(F)(F)F)cs2)CC1 | 0 | 0.08
19 | CCCC1CCCN(C(C)c2nnc(-c3cccs3)o2)CC1 (stereo unspecified) | -9 | 1.23
20 | CCOc1ccc(C(=O)NCCc2cc(C)n(C)n2)cc1 | -5 | 0.95
21 | O=C(c1csc2ccccc12)N1CC[C@H](Nc2ncccn2)[C@@H](O)C1 | -6 | 1.06

Row | Compound | % Inhibition [%] | Z score
22 | CC(C)(C)c1noc([C@@H](c2ccccc2)n2cccn2)n1 | -8 | 1.35
23 | CCNC(=O)[C@@](C)(NS(=O)(=O)c1cccs1)C(F)(F)F | -3 | 0.41
24 | CCCCn1nc(C)nc1CCCn1cccn1 | 2 | -0.28
25 | COc1ccc(CNC(=O)[C@]2(C)Cn3cnc(C(=O)Nc4ccc(Cl)cn4)c3C(=O)N2C2CC2)cc1 | -9 | 0.89
26 | CCn1nc(C(C)C)cc1-c1nc(CC(N)=O)nn1CC(C)(C)O | -5 | 0.61
27 | COC(=O)c1nccc2c(S(=O)(=O)NCC(C)(C)C[C@H](C)O)cccc12 | -9 | 0.91
28 | CCOc1cccc(CN(CCO)C(=O)N[C@@H](C)C(=O)N(C)C)c1 | -27 | 3.52
29 | CCc1cnc(N)nc1NC[C@H](C)Oc1cccnc1 | -6 | 1.04
30 | COc1cccc(CNC(=O)CCc2nc(N3CCC(C)CC3)c3c(C)noc3n2)c1 | -3 | 0.41
31 | Cc1cc(C(=O)N2CC(C)OC(C)C2)c(C)n1C(C)C (stereo unspecified) | -8 | 1.06
32 | O=C1C[C@H](NC2CCC(C(F)(F)F)CC2)CN1CC(F)(F)F (stereo partly specified) | 0 | 0.04
33 | Cc1c(Cl)cc(C(=O)N2CC[C@@H]3CNC[C@@H]32)cc1Cl | -6 | 0.67
34 | CCC(CC)N(Cc1ccccc1F)C(=O)c1ccc2c(c1)ncn2CCO | -5 | 0.68
35 | NCc1cc(Br)ccc1F | -2 | 0.16
36 | Cc1sc2ncnc(N3CCc4nocc4C3)c2c1C | -10 | 1.82
37 | Cc1nc(C)c(C)c(N(C)Cc2cnn(-c3ccccc3)c2)n1 | 7 | -1.03
38 | Cc1ccc(CN(C)C(=O)[C@H]2CCc3ccccc3C2)o1 | -9 | 0.94
39 | CN1CCCC2CN(c3nc4ccccc4[nH]3)CCC21 (stereo unspecified) | -7 | 0.82
40 | CN(C)C(=O)CO[C@H]1COCC[C@@H]1NC(=O)c1ccc(F)c(Cl)c1 | -15 | 2.52
41 | Cc1c(Cl)cccc1CNC(=O)CC[C@@H]1NC(=O)NC1=O | -22 | 2.22
42 | COC(=O)C1CCN(C(=O)c2cc(NC(=O)CC3CCCC3)cc3nc([C@@H]4CCCO4)n(C)c23)CC1 | -14 | 1.88

Row | Compound | % Inhibition [%] | Z score
43 | CCCC1(CNC(=O)N2CCOCC2)CC1 | -6 | 0.69
44 | Nc1nc(CCC(=O)N[C@H]2CC[C@@H]3CCC[C@@H]32)cs1 | -8 | 0.95
45 | Cc1ccc(Cc2nc(N3CCCN(C(=O)CCc4ccccc4)CC3)c3cnn(-c4ccccc4)c3n2)cc1 | 32 | -0.91
46 | COC(=O)[C@H](CC(C)C)N(C)C(=O)c1ccn(C)n1 | -7 | 1.43
47 | Cc1ccc(C[C@H](NC(=O)Cc2ccc(C)nc2)c2ccccn2)cc1 | 5 | -0.61
48 | O=C1COc2ccc(S(=O)(=O)N3CCc4ccccc43)c3c2N1CCC3 | -7 | 0.73
49 | Cc1oc2ccccc2c1CNS(=O)(=O)CCC1CCC1 | -3 | 0.48
50 | O=C(c1cc(S(=O)(=O)N2CCCCC2)cs1)N1CCOCC1 | -24 | 2.75
51 | CCc1[nH]nc(-c2cccs2)c1NC(=O)c1ccccc1OC | -7 | 1.03
52 | Cn1cc(-c2ccc3c(c2)OCC[C@H]2CN(C(=O)c4c(F)cccc4F)CC[C@H]2CC(=O)N3)cn1 | -5 | 0.81
53 | COCCOC[C@H]1CCN(C(=O)c2cc(Br)cn2C)C1 | -4 | 0.36
54 | COc1ccc(CN(CCO)C2CCCCC2)nn1 | -6 | 0.9
55 | CC(C)C(CNC(=O)N1CCS(=O)(=O)CC1C)c1ccccc1 (stereo unspecified) | -11 | 1.16
56 | N#CC1CCCC(Nc2cccc(C(=O)NCc3ccccn3)c2)C1 (stereo unspecified) | -7 | 0.75
57 | FC(F)(F)c1cnc(NC2CC2)c(Cl)c1 | 2 | -0.38
58 | Cc1cc(CS(=O)(=O)N2C[C@@H](N(C)C)Cc3ccccc32)no1 | -6 | 1.14
59 | Cc1nccn1CCC1CCN(C(=O)[C@@H]2COc3ccccc3C2)CC1 | 3 | -0.51
60 | O=C(CN1CCN(c2ccc(F)c(F)c2)C1=O)NCc1ccco1 | 3 | -0.37
61 | COc1ccc(-c2nnc(-c3ccc(OC)c(S(=O)(=O)N4CCCCCC4)c3)o2)cc1OC | 4 | -0.6
62 | CC1CCC(C)N1C(C)C(=O)N(C)CCc1ccc(F)cc1 (stereo unspecified) | -1 | 0.11
63 | Cc1nc(NC(=O)[C@H](Cc2ccccc2)NC(=O)N2CCOCC2)sc1C | -3 | 0.39

Row | Compound | % Inhibition [%] | Z score
64 | O=C(Nc1cccc(S(=O)(=O)N2CCOCC2)c1)[C@@H]1Cc2ccccc2O1 | 13 | -1.65
65 | COc1ccc(C(=O)N2CC[C@H]3NC(=O)N(Cc4ccccc4)C(=O)[C@H]32)cc1 | 25 | -2.88
66 | C[C@H]1COc2ccc(CN3CCOCC3)cc2CN1C(=O)NCCc1ccccc1 | -16 | 1.37
67 | COc1ccccc1[C@H]1CC(=O)Nc2c1c(C)nn2-c1ncnc2[nH]cnc12 | 11 | -1.22
68 | COc1ccc(C(=O)Nc2ccc3c(c2)nc(CN2CCCCCC2)n3C(C)C)cc1 | -7 | 1.14
69 | CCN(Cc1ccncc1C)C[C@H]1CCCCO1 | -10 | 0.98
70 | Cc1nc(C)c(F)c(NC2CCN(S(=O)(=O)C(C)(C)C)CC2)n1 | -5 | 0.83
71 | CC(=O)NC(C)(C)C(=O)NCc1ccc2[nH]cnc2c1 | -10 | 0.95
72 | COc1ncccc1CNC(=O)C(=O)Nc1nc(C)c(C)s1 | 7 | -1.14
73 | COCCC(=O)N1CCc2c(c(-c3nc(C4CC4)no3)nn2C)C1 | -2 | 0.35
74 | COc1cccc(-n2cc(C(=O)O)c3c2[C@H](C(C)C)CC(=O)N3)c1 | -8 | 0.88
75 | CCC(CC)N1C[C@]23C=C[C@H](O2)C(C(=O)N2CCc4n[nH]cc4C2)C3C1=O (stereo partly specified) | -7 | 1.39
76 | COCCCNC(=O)COc1ncnc2oc(C)c(C)c12 | -7 | 0.88
77 | Cc1cccc(-c2nc3ccc(C(=O)N[C@@H](C)CCc4ccccc4)cc3nc2-c2cccc(C)c2)c1 | 5 | -0.63
78 | Cc1ccccc1-n1c(=O)n(Cc2ccccc2)c(=O)c2c1ncn2Cc1ccccc1 | -9 | 1.36
79 | CNCC1CCCN1C(=O)C1CC1c1cccc(C(F)(F)F)c1 (stereo unspecified) | -11 | 1.76
80 | Cc1noc(C)c1CCC(=O)OC1CN(c2nc3c(F)cc(F)cc3s2)C1 | -4 | 0.79
81 | O=C(NC[C@@H](C(=O)O)c1ccc(F)cc1)c1cccc(C2CC2)c1 | -8 | 0.92
82 | Cc1cccc(C(=O)NC2CCN([C@@H](C)c3ccncc3)CC2)c1F | -5 | 0.61
83 | Cc1nn(C)c2cc(NC(=O)N3CCO[C@H](C4CCC4)C3)ccc12 | 0 | -0.01
